Experimental data reported in ChEMBL document CHEMBL4888484, “Replenishing the malaria drug discovery pipeline: Screening and hit evaluation of the MMV Hit Generation Library 1 (HGL1) against asexual blood stage Plasmodium falciparum ,using a nano luciferase reporter read-out” (2022).
Among all 150,000 compounds or so, about 540 (0.36%) showed an effect of 50% or more. This is one part of the list.

Test system: Plasmodium falciparum
Assay: Primary screen in NF54 nanoGlo assay, in single point, at 2uM, 72h; a lower Z score goes with more inhibition
Format: functional, Erythrocyte
Conditions: timepoint 72 hour

Row | SMILES | % Inhibition | Z score
1 | Cc1ccc(N2CCC(N3CCN(c4ccncc4C)CC3)CC2)cc1 | -8% | 1.17
2 | CC(=O)N[C@H](C(=O)Nc1ccncc1)C(C)C | 9% | -1.32
3 | O=C(N[C@H]1CC[C@H](CO)CC1)c1ccc(Oc2cccc(Cl)c2Cl)nc1 | -6% | 1.08
4 | CCc1c(NC(=O)c2csc(-c3ccc(C)o3)n2)nnn1CCc1ccc(OC)cc1 | -19% | 1.96
5 | CCC(CC)C(=O)Nc1nc(C2CC2)cs1 | 8% | -0.92
6 | Nc1nonc1-c1noc(NCc2ccncc2)n1 | 0% | -0.06
7 | Cc1nc(C(=O)N2CCC(c3ccnc4ccccc34)CC2)c(C)o1 | -36% | 4.24
8 | CC(C)(C)C(=O)N1C[C@H](NC(=O)CCCc2cn[nH]c2)[C@@H](C2CC2)C1 | -24% | 2.31
9 | Cn1ccnc1C(=O)N1CCN([C@@H](c2ccccc2)c2ccc(Cl)cc2)CC1 | -16% | 1.58
10 | O=C(Cn1cc(S(=O)(=O)Cc2ccccc2Cl)c2ccccc21)N1CCN(c2ccccc2)CC1 | 4% | -0.63
11 | O=C(CCc1ccccc1C(=O)O)NC1CCC(c2ccc(F)cc2)C1 (configuration not stated) | 0% | -0.02
12 | Cc1ccccc1OCC(=O)Nc1cccc2cccc(NC(=O)COc3ccccc3C)c12 | 0% | 0
13 | Cc1cccc(C(=O)NCCn2c(-c3ccncc3)nc3ccccc32)c1 | 3% | -0.59
14 | CN(C[C@H]1CCCN1S(=O)(=O)Cc1ccon1)c1ccccc1 | 31% | -2.93
15 | CCOCCS(=O)(=O)NCC1(CO)CCCCC1 | -3% | 0.41
16 | CCOCCCN1C(=O)c2nc3ccccc3n2C[C@@]1(C)C(=O)NC1CCCC1 | -32% | 3.12
17 | CCN(CC)C(=O)c1sc(-c2cc(S(=O)(=O)N(C)C3CCCCC3)c(C)n2C)nc1C | -7% | 0.82
18 | N[C@H]1CCCOc2c1ccc(Cl)c2Cl | -1% | 0.2
19 | CC1(C)CC(=O)c2c(/C=C/c3ccccc3)n[nH]c2C1 | 0% | -0.02
20 | CCOC(=O)C(C)(O)CNC(=O)[C@H]1Cc2ccccc2O[C@@H]1C(F)(F)F (some centres not stated) | 2% | -0.19
21 | C[C@@H](C(=O)NCc1nc(-c2cnccn2)n[nH]1)n1cc(Cl)cn1 | 1% | -0.1

Row | SMILES | % Inhibition | Z score
22 | COc1ccc(-c2cc(CN(Cc3ccco3)C(=O)C3CCCC3)no2)c(OC)c1 | -7% | 0.83
23 | Fc1ccccc1-c1cc(NC[C@H]2CCCO2)n2nccc2n1 | 3% | -0.47
24 | O=C(NCC1CCCN(c2ccnc(C(F)(F)F)c2)C1)C1CCCN1 (configuration not stated) | -3% | 0.45
25 | CCN(C[C@H]1CCOC1)C(=O)NCc1ccc2c(c1)OCO2 | -17% | 3.23
26 | CN(C)CC[C@H]1CN(Cc2cnc(-c3ccccc3)s2)CCO1 | -19% | 2.64
27 | O=S(=O)(Nc1cccn2nc(C3CC3)nc12)c1ccc(F)cc1 | -5% | 0.55
28 | O=C(Oc1ccc(NC(=O)c2ccccc2Cl)cc1)c1cnccn1 | -20% | 3.39
29 | CN(CCCn1ccnc1)C(=O)[C@H]1CC[C@H](Nc2ncccn2)CC1 | -9% | 1.2
30 | CC1CC(C)CN(CC(C)NC(=O)Nc2ccc3c(c2)OCO3)C1 (configuration not stated) | 3% | -0.29
31 | Cc1ccsc1CN(Cc1ccc(F)cc1)C(=O)CN(C(=O)c1cccc(C(F)(F)F)c1)C(C)C | -9% | 0.84
32 | O=C(CCc1cn2ccccc2n1)N[C@H]1CC[C@@H]2CCC[C@@H]21 | -15% | 2.91
33 | CCCCN(C)c1ncc(Cl)c(C(=O)N2CCCn3ncnc32)n1 | 3% | -0.55
34 | C[C@H]1C[C@@H](C(=O)Nc2ccc(C(=O)Nc3ccccc3)cc2)O[C@@H]1C(=O)O | 13% | -1.63
35 | O=C(Nc1ccccc1)C(=O)Nc1ccc2ncc(Cl)n2c1 | 31% | -0.66
36 | COCC(=O)NC[C@H]1OC[C@@H](NCc2ccc(C)cc2)[C@@H]1O | 29% | -3.29
37 | CC(C)(C)c1cnc(CN[C@H]2CCCN(c3ncccn3)C2)s1 | -14% | 2.12
38 | COc1cccc(CCC(=O)N2CCCc3c2nc[nH]c3=O)c1F | -21% | 3.53
39 | COc1ccccc1CNC(=O)c1cccnc1O[C@H]1CCOC1 | 0% | -0.03
40 | COc1nc(CNC(=O)c2ccsc2)nc(N2CCOCC2)n1 | -5% | 0.78
41 | COc1cc(OC)c(NC(=O)N2CCC3(CC2)CN(C)C[C@@H]3c2nnc(C)o2)cc1Cl | 4% | -0.75
